PubChem BioAssay AID651820 (National Center for Advancing Translational Sciences (NCATS), 2012)
About 12,000 (3.5%) of roughly 340,000 compounds were called active. Inconclusive means that the source gave no clear call. Such entries were picked first, then a sample of the others. Calls follow the shape of the dose curve; as a rule, active = well fitted inhibition curve with a large enough effect; inconclusive = small, poorly fitted or top-dose-only effect, or another doubt; inactive = no such curve, though single readings can be large or run the other way. Where the call is inconclusive, the potency comes from a doubtful curve fit.
% is scaled to controls: 0 for no effect and ±100 for the full control effect; potency is read from the fitted curve at half-maximal effect; tags tell the direction and shape of the fitted curve.

Experiment: qHTS Assay for Inhibitors of Hepatitis C Virus (HCV)
Conditions: Huh7.5.1 HCVcc-Cre (HCVcc is cell-culture hepatitis C virus) infection, luciferase reporter, 44 h; activity change, negative = inhibition: at 41.8 µM (top of the series) unless noted
Procedure, shortened: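 Whole-lifecycle infectious HCVcc-Cre system; cells 1,000/well, compound then virus (~0.5 moi) added 4 h after plating, 44 h culture. Luciferase read 15 sec following 15 min substrate incubation, room temp.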
In the case of `Cc1ccc(S(=O)(=O)N(C)C)cc1NC(=S)NC(C)CCC(C)C` (configuration not stated), the Potency is reported as inconclusive: 12.6 µM [inhibitor, single point]. For `CCC(C(=O)Nc1cc(Cl)ccc1OC)c1ccccc1` (configuration not stated), the Potency was inconclusive: 31.6 µM [inhibitor, single point]. For `COc1cccc(CCNC(=O)c2cccc(NC(=O)C3=C(C)OCCS3)c2)c1`, the Potency was inconclusive: 11.2 µM [inhibitor, single point]. With `COc1ccc2cc(C#N)c(SCC(=O)N3CC(=O)Nc4ccccc43)nc2c1` the Potency was inconclusive: 31.6 µM [inhibitor, single point]. With `O=C(NC(=S)Nc1ccccc1N1CCOCC1)c1ccc(-c2cc(Cl)ccc2Cl)o1` the Potency was inconclusive: 15.8 µM [inhibitor, single point]. With `COc1ccccc1[N+](=O)[O-]` the Potency was inconclusive: 3.16 µM [inhibitor, single point]. In the case of `COc1cccc(S(=O)(=O)NCc2ccc(C(=O)N3CCN(c4ccccc4)CC3)cc2)c1`, the Potency is reported as inconclusive: 31.6 µM [inhibitor, single point]. In the case of `CSc1nsc(SCC(=O)Nc2ccc3c(c2)OCCO3)n1`, the Potency is reported as inconclusive: 5.62 µM [inhibitor, single point]. In the case of `COc1ccccc1NS(=O)(=O)c1cc(NC(=O)C(C)(C)C)ccc1N1CCOCC1`, the Potency is reported as inconclusive: 14.1 µM [inhibitor, single point]. With `Cc1ccc(NC(=S)NC2CC3CCCC(C2)N3Cc2cccs2)cc1` (configuration not stated) the Potency was inconclusive: 8.91 µM [inhibitor, partial curve]. In the case of `CCOC(=O)N1CCN(c2nc3ccc(C)cc3n3cnnc23)CC1`, the “activity change, negative = inhibition” value is reported as inactive: 5.04%. With `O=C(c1ccco1)N1CCN(C(=O)c2ccc(COc3ccc4c(c3)CCC4)o2)CC1` the Potency was inconclusive: 12.6 µM [inhibitor, single point]. With `Cc1cccc(N=Nc2cn[nH]c2-c2ccco2)c1` the Potency was inconclusive: 10 µM [inhibitor, single point]. In the case of `COc1cc2ccccc2cc1C(=O)NC1CCCCC1`, the Potency is reported as inconclusive: 31.6 µM [inhibitor, single point]. With `CCc1nc2ccccc2n1CC(=O)Nc1cc(C)on1` the Potency was inconclusive: 5.62 µM [inhibitor, single point]. In the case of `CC(OC(=O)Cc1ccsc1)C(=O)Nc1ccc(Cl)cn1` (configuration not stated), the Potency is reported as active: 22.4 µM. For `CCCc1nc2c(=O)n(C)c(=O)nc-2n(C)n1`, the Potency was active: 2.51 µM. In the case of `Cc1cc(=O)n2c3c(c4c(cc13)c(CN(C)C)cc(=O)n4C)OC2`, the Potency is reported as inconclusive: 35.5 µM [inhibitor, partial curve, poor fit]. For `CCCN(CCC)C(=O)c1cn(C)c2ccc(S(=O)(=O)N3CCCC3)cc2c1=O`, the Potency was inconclusive: 15.8 µM [inhibitor, single point]. In the case of `c1ccc(-c2nc(NCCCN3CCOCC3)c3ccccc3n2)cc1`, the Potency is reported as inconclusive: 8.91 µM [inhibitor, partial curve]. For `COc1ccccc1CN1CCCC(CN(CCN(C)C)C(=O)c2ccc(C)cc2)C1` (configuration not stated), the Potency was inconclusive: 22.4 µM [inhibitor, single point]. With `COc1ccc(NC(=O)CN(Cc2ccccc2)Cc2ccccc2)cc1S(N)(=O)=O` the “activity change, negative = inhibition” value was inactive: 21.2%. In the case of `CCCCn1c(SC(C)C(=O)c2ccc(OC)cc2)nc2cc(S(N)(=O)=O)ccc21` (configuration not stated), the Potency is reported as inconclusive: 31.6 µM [inhibitor, single point]. With `COC(=O)C1=C(c2ccccc2)C[C@@H]2CC[C@H]1N2C(=O)NCc1ccccc1` the “activity change, negative = inhibition” value was inactive: -22%. With `Cc1ccc2oc(-c3cccc(NC(=O)c4cc(-n5cnnc5)ccc4Cl)c3)nc2c1` the Potency was inconclusive: 1.58 µM [inhibitor, partial curve]. With `Cc1nn(C)cc1/C=N\NC(=O)c1ccc(Cn2cc(Cl)cn2)cc1` the activity change, negative = inhibition was inconclusive: -30.2% [inhibitor] [at 0.335 µM]. With `Cc1cccc(C)c1OC(=O)CN(c1ccc(Cl)cc1)S(C)(=O)=O` the “activity change, negative = inhibition” value was inactive: -6.89%. With `COC(=O)c1cc(-c2cccs2)nc2ccccc12` the Potency was active: 12.6 µM. In the case of `Cc1ccc(Cl)cc1N1CCN(C(=O)C2(S(=O)(=O)c3ccc(Cl)cc3)CC2)CC1`, the Potency is reported as active: 14.1 µM. With `CCOc1ccc(NC(=O)CN(C)S(=O)(=O)c2cccc3cccnc23)cc1` the “activity change, negative = inhibition” value was inactive: -14.3%. In the case of `COc1ccc(C(NC(=O)C(C)C)c2ccc3cccnc3c2O)cc1` (configuration not stated), the Potency is reported as active: 2 µM. For `O=C(C1CCN(c2ncnc3c2nc2n3CCCCC2)CC1)N1CCN(c2cccc(Cl)c2)CC1`, the Potency was inconclusive: 2.24 µM [inhibitor, partial curve]. In the case of `CCOC(=O)c1c(NC(=O)CSc2nc3ccccc3o2)sc(C)c1C`, the Potency is reported as inconclusive: 2 µM [inhibitor, full curve]. In the case of `COc1ccc(-n2c(SCC#N)nc3ccccc3c2=O)cc1`, the “activity change, negative = inhibition” value is reported as inactive: 3.35%. With `Cc1nnc(SCC(=O)NC2CC2)s1` the “activity change, negative = inhibition” value was inactive: 9.3%. In the case of `COc1nnc(-c2ccc(C)c(S(=O)(=O)NC(C)C)c2)c2ccccc12`, the “activity change, negative = inhibition” value is reported as inactive: -13.6%. In the case of `COc1ccc(/C=C/c2c(-c3ccc(OC)cc3)sc3cc(OC)c(OC)cc23)cc1`, the Potency is reported as active: 2.51 µM. For `CCOc1ccccc1Oc1coc2cc(OC(=O)N(C)C)ccc2c1=O`, the “activity change, negative = inhibition” value was inactive: -16.9%. For `Cc1cc(N2C(=O)C3CCCN3C2c2ccccc2)no1` (configuration not stated), the Potency was inconclusive: 31.6 µM [inhibitor, single point]. In the case of `COc1ccc(CN2CCN(Cc3ccc(C)cc3)CC2)c(OC)c1`, the Potency is reported as inconclusive: 31.6 µM [inhibitor, single point]. In the case of `O=C(c1ccccc1)N(Cc1ccc(F)cc1)Cc1nc2ccccc2c(=O)[nH]1`, the Potency is reported as inconclusive: 35.5 µM [inhibitor, partial curve, poor fit]. In the case of `CCOC(=O)N1CCC(N2C(=O)c3ccccc3C2Nc2cc(C)cc(C)c2)CC1` (configuration not stated), the “activity change, negative = inhibition” value is reported as inactive: -13.1%. In the case of `CCOC(=O)c1nc(Nc2ccc(OC)cc2)c2ccccc2n1`, the Potency is reported as inconclusive: 10 µM [inhibitor, partial curve]. With `CCOc1ccc(CNC(=O)CCS(=O)(=O)Cc2ccccc2C)cc1OC` the “activity change, negative = inhibition” value was inactive: 14.3%. In the case of `COc1ccc(NC2=C(NCCO)C(=O)c3ccccc3C2=O)cc1`, the Potency is reported as inconclusive: 11.2 µM [inhibitor, partial curve]. With `CCN(CC)c1ccc(NC(=O)COc2ccc(C#N)cc2)cc1S(=O)(=O)Nc1ccc(OC)cc1` the Potency was inconclusive: 11.2 µM [inhibitor, partial curve]. For `COc1ccc2nc(-c3ccccc3)nc(C3CCCCC3)c2c1`, the Potency was inconclusive: 3.98 µM [inhibitor, single point]. For `COc1ccc(-c2ncc(CN3CCN(CCC(C)C)C(CCO)C3)cn2)cc1` (configuration not stated), the Potency was inconclusive: 10 µM [inhibitor, single point]. For `CCCCN(C)C(=O)CCCCn1c(=O)[nH]c2cc(OCC)c(OCC)cc2c1=O`, the “activity change, negative = inhibition” value was inactive: -7.85%. For `NC(=S)N=Nc1c(O)n(C2OC(=O)c3ccccc32)c2ccccc12` (configuration not stated), the “activity change, negative = inhibition” value was inactive: 0.162%. With `O=C(CSc1nnc(CNC(=O)c2ccccc2)o1)Nc1nccs1` the “activity change, negative = inhibition” value was inactive: 4.53%. For `CC1CCN(C(=S)Nc2ccc3nc4n(c(=O)c3c2)CCCCC4)CC1`, the Potency was inconclusive: 3.16 µM [inhibitor, partial curve, poor fit]. In the case of `O=C(N/N=C/c1cn(Cc2ccccc2)c2ccccc12)c1ccncc1`, the Potency is reported as inconclusive: 11.2 µM [inhibitor, single point]. In the case of `CC(C)OC(=O)/C(C#N)=C/c1c[nH]c2ccccc12`, the Potency is reported as inconclusive: 31.6 µM [inhibitor, single point]. With `CC(=O)NC(=S)Nc1ccc2oc(=O)ccc2c1` the “activity change, negative = inhibition” value was inactive: -10.9%. For `O=C(CSc1oc(-c2ccco2)nc1S(=O)(=O)c1ccc(Cl)cc1)NCC1CCCO1` (configuration not stated), the Potency was inconclusive: 10 µM [inhibitor, partial curve]. For `CCNc1c(NC(=O)COc2ccc(Cl)cc2)c(=O)oc2ccccc12`, the “activity change, negative = inhibition” value was inactive: -14.5%. With `CCCC1=C(C(=O)OCC)C(c2cc(Cl)cc(OC)c2OCC(=O)OCC)NC(=O)N1` (configuration not stated) the Potency was inconclusive: 12.6 µM [inhibitor, single point]. With `CC(C)NC(=S)N/N=C/C1=CCC2CC1C2(C)C` (configuration not stated) the Potency was inconclusive: 31.6 µM [inhibitor, partial curve, poor fit]. For `CN1CCN(C(=O)COc2ccc(Oc3ccccc3)cc2)CC1`, the Potency was inconclusive: 0.316 µM [inhibitor, full curve, poor fit]. With `CCCCN(C(=O)c1cc(S(=O)(=O)N2CCCCCC2)ccc1OC)c1ccccc1` the Potency was inconclusive: 10 µM [inhibitor, partial curve]. In the case of `Cc1ccc(S(=O)(=O)N2CCCC2CNC(=O)c2ccc3c(c2)OCO3)cc1` (configuration not stated), the Potency is reported as inconclusive: 2.82 µM [inhibitor, full curve, poor fit]. In the case of `N=c1c(C(=O)NCC2CCCO2)cc2c(=O)n3ccccc3nc2n1C1CCCC1` (configuration not stated), the “activity change, negative = inhibition” value is reported as inactive: -24.2%. For `CC(=O)c1cccc(NC(=O)N2CCC(c3ccc(C)cc3)C2)c1` (configuration not stated), the “activity change, negative = inhibition” value was inactive: -18.9%. With `CCn1c(/C=C/c2ccc([N+](=O)[O-])o2)nc2ccccc2c1=O` the Potency was inconclusive: 3.55 µM [inhibitor, full curve]. For `COc1cc(CNC2CCCC2)cc(Cl)c1OCc1ccc(F)cc1`, the Potency was active: 1.26 µM. With `O=C(C1CCCC1)N1CCN=C1SCc1cccc([N+](=O)[O-])c1` the Potency was inconclusive: 31.6 µM [inhibitor, single point]. For `CNC(=S)NNC(=O)c1cc(C(C)(C)C)nn1Cc1ccc(F)cc1`, the “activity change, negative = inhibition” value was inactive: 5.77%. For `CN(C)/C=C/C(=O)c1ccc2noc(-c3ccc(F)cc3)c2c1`, the Potency was inconclusive: 7.94 µM [inhibitor, partial curve]. With `Cc1cccc(-n2cc(C#N)c(=O)[nH]c2=O)n1` the “activity change, negative = inhibition” value was inactive: 8.88%. For `CC1CCN(C(=S)c2cn(Cc3ccc(F)cc3)c3ccccc23)CC1`, the Potency was inconclusive: 22.4 µM [inhibitor, single point]. In the case of `CCCCNc1c(-c2ccc(SC3CCCCC3)cc2)nc2ccccn12`, the Potency is reported as inconclusive: 11.2 µM [inhibitor, single point].
